Assay results from PubChem BioAssay AID1671188 (National Center for Advancing Translational Sciences (NCATS), 2021).
Out of some 100,000 compounds screened, about 250 (0.25%) were called active. Inconclusive means that the source gave no clear call. Such entries were picked first, then a sample of the others. Calls follow the shape of the dose curve; as a rule, active = well fitted inhibition curve with a large enough effect; inconclusive = small, poorly fitted or top-dose-only effect; inactive = flat fitted curve, though single readings scatter. Potencies of inconclusive entries are left out as doubtful fits.

target: Alanine aminotransferase 2 (Homo sapiens) (UniProt Q8TD30); assay: Primary qHTS assay for inhibitors of Glutamate pyruvate transaminase 2 (GPT2); settings: Recombinant GPT2, coupled pyruvate oxidase/HRP Amplex Red fluorescence; activity change, negative = inhibition: at 57.7 µM (top of the series) unless noted; series mostly up to 57.7 µM; also: nearly all actives have a fitted effect of over 60% in size
Procedure, shortened: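 Fluorescence of coupled pyruvate oxidase/HRP/Amplex Red system (50uM Amplex, 30 min, dark) reports pyruvate formed by GPT2. Enzyme reaction: 10ng/uL GPT2, 2mM L-alanine, 250uM a-KG, 30 min room temperature, pH 7.5; 50uM AOA control.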
% is scaled to controls: 0 for no effect and ±100 for the full control effect; potency is read from the fitted curve at half-maximal effect; tags tell the direction and shape of the fitted curve.

UniProt Q8TD30, sequence (Q8TD30 whole entry, looked up): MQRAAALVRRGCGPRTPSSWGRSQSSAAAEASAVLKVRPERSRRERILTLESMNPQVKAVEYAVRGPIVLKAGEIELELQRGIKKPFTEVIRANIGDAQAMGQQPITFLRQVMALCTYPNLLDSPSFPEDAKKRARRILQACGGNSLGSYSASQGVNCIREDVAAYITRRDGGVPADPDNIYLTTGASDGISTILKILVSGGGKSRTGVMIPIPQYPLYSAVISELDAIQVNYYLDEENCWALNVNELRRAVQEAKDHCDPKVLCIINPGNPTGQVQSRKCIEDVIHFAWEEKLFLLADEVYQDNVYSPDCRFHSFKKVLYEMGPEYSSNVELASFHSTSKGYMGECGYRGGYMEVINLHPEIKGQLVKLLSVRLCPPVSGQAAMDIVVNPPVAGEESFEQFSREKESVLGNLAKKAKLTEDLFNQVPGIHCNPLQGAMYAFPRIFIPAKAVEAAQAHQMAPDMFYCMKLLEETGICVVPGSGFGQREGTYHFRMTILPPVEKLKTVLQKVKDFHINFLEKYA

| SMILES | activity change, negative = inhibition | Potency | outcome |
| --- | --- | --- | --- |
| O=C(CC1CCCCC1)N1CCC(c2noc(COc3ccc(F)cc3)n2)CC1 | inactive: -10.8% | – | – |
| COc1ccc(NC(=O)C2CCc3nnc(C4CC4)n32)cc1 (stereo unspecified) | inactive: -14.4% [at 88.5 µM] | – | – |
| COc1ccc2nc([C@H]3CCN(Cc4ccccc4)C3)[nH]c2c1 | inactive: 0.0951% [at 88.5 µM] | – | – |
| CC(C)N1C[C@H](O)C[C@H]1c1nnc2n1CCN(C(=O)CCCc1c[nH]c3ccccc13)C2 | inactive: -1.56% | – | – |
| Cc1nnc(-c2cc(-c3ccc(CO)cc3)ccn2)n1CCN1CCOCC1 | – | inconclusive [inhibitor, partial curve, poor fit] | – |
| CNC(=O)N1CCC(C2CCN(Cc3cc(F)c(F)c(F)c3)C2)CC1 (stereo unspecified) | – | – | inactive |
| O=C1NN=C(C2CC2)C12CCN([S+](=O)([O-])c1cccc(C(F)(F)F)c1)CC2 | – | inconclusive [inhibitor, full curve, poor fit] | – |
| c1ccc(CCc2noc(-c3ccc(NCCN4CCCC4)nc3)n2)cc1 | – | inconclusive [inhibitor, single point] | – |
| O=C(NCc1cccnc1)c1ccc(-c2ccc(N3CCSCC3)nc2)cc1 | – | inconclusive [inhibitor, single point] | – |
| O=C(O)CNC(=O)c1ccccc1I | – | inconclusive [inhibitor, partial curve, poor fit] | – |
| O=C(Nc1ccc(Cl)cc1Cl)c1cnn2c1CN(C(=O)c1ccccc1F)CC2 | – | – | inactive |
| COc1ccc(Cn2c(C3CCN(C(=O)Cc4ccccc4Cl)CC3)n[nH]c2=O)cc1 | – | – | inactive |
| CC(=O)N1CCCCCC1c1nc(-c2cccnc2)no1 (stereo unspecified) | inactive: -10.7% | – | – |
| Cc1ccc(C(=O)N[C@H]2CO[C@H]3[C@@H]2OC[C@@H]3Nc2nccc(-c3ccc(-c4ccccc4)cc3)n2)cc1 | inactive: -26.8% | – | – |
| CN1CCC(C(=O)N[C@@H]2CN(c3ncccn3)C[C@H]2CO)CC1 | – | – | inactive |
| CN(C)[C@@H]1CN(C(=O)c2cc(Cl)ccc2F)C[C@H]1CO | – | – | inactive |
| O=C(C1CN(c2ccc(Cl)cc2)C(=O)N1)N1CCN(Cc2ccccc2)CC1 (stereo unspecified) | – | inconclusive [inhibitor, single point] | – |
| CN1CC(=O)N(C2CCCNC2)Cc2c(NCc3ccc4c(c3)OCO4)ncnc21 (stereo unspecified) | – | inconclusive [inhibitor, full curve, poor fit] | – |
| O=c1n(-c2ccncc2)nc2n1CCN(Cc1cccc3ccccc13)C2 | – | inconclusive [inhibitor, single point] | – |
| CC(C)N1CCC(OCCCNC(=O)C2CCN(c3cnn(C)c(=O)c3)C2)CC1 (stereo unspecified) | – | – | inactive |
| CN1Cc2cccn2CC1CNC(=O)c1nn(C)c2ccccc12 (stereo unspecified) | – | inconclusive [inhibitor, full curve, poor fit] | – |
